From patent publication US20260285998 (published 2026)

Target: human 4-1BB (human, UniProt Q07011)
Assay: FACS

UniProt Q07011, sequence (Q07011 24-186): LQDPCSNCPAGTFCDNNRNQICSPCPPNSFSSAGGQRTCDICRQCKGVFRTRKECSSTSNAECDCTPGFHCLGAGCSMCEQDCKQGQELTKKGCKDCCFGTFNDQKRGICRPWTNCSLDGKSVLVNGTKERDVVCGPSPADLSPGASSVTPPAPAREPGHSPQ

Binder	EC50 [nM]
P1AG7400 4-1BBL arm (protein) chain 1: REGPELSPDDPAGLLDLRQGMFAQLVAQNVLLIDGPLSWYSDPGLAGVSLTGGLSYKEDTKELVVAKAGVYYVFFQLELRRVVAGEGSGSVSLALHLQPLRSAAGAAALALTVDLPPASSEARNSAFGFQGRLLHLSAGQRLGVHLHTEARARHAWQLTQGATVLGLFRVTPEIPAGLGGGGSGGGGREGPELSPDDPAGLLDLRQGMFAQLVAQNVLLIDGPLSWYSDPGLAGVSLTGGLSYKEDTKELVVAKAGVYYVFFQLELRRVVAGEGSGSVSLALHLQPLRSAAGAAALALTVDLPPASSEARNSAFGFQGRLLHLSAGQRLGVHLHTEARARHAWQLTQGATVLGLFRVTPEIPAGLGGGGSGGGGRTVAAPSVFIFPPSDEQLKSGTASVVCLLNNFYPREAKVQWKVDNALQSGNSQESVTEQDSKDSTYSLSSTLTLSKADYEKHKVYACEVTHQGLSSPVTKSFNRGE[in this place human IgG1 Fc with changes] chain 2: REGPELSPDDPAGLLDLRQGMFAQLVAQNVLLIDGPLSWYSDPGLAGVSLTGGLSYKEDTKELVVAKAGVYYVFFQLELRRVVAGEGSGSVSLALHLQPLRSAAGAAALALTVDLPPASSEARNSAFGFQGRLLHLSAGQRLGVHLHTEARARHAWQLTQGATVLGLFRVTPEIPAGLGGGGSGGGGASTKGPSVFPLAPSSKSTSGGTAALGCLVKDYFPEPVTVSWNSGALTSGVHTFPAVLQSSGLYSLSSVVTVPSSSLGTQTYICNVNHKPSNTKVDKKVEPKSC	0.51
P1AG7409 4-1BBL arm (protein) chain 1: REGPELSPDDPAGLLDLRQGMFAQLVAQNVLLIDGPLSWYSDPGLAGVSLTGGLSYKEDTKELVVAKAGVYYVFFQLELRRVVAGEGSGSVSLALHLQPLRSAAGAAALALTVDLPPASSEARNSAFGFQGRLLHLSAGQRLGVHLHTEARARHAWQLTQGATVLGLFRVTPEIPAGLGGGGSGGGGREGPELSPDDPAGLLDLRQGMFAQLVAQNVLLIDGPLSWYSDPGLAGVSLTGGLSYKEDTKELVVAKAGVYYVFFQLELRRVVAGEGSGSVSLALHLQPLRSAAGAAALALTVDLPPASSEARNSAFGFQGRLLHLSAGQRLGVHLHTEARARHAWQLTQGATVLGLFRVTPEIPAGLGGGGSGGGGRTVAAPSVFIFPPSDEQLKSGTASVVCLLNNFYPREAKVQWKVDNALQSGNSQESVTEQDSKDSTYSLSSTLTLSKADYEKHKVYACEVTHQGLSSPVTKSFNRGE[in this place human IgG1 Fc with changes] chain 2: REGPELSPDDPAGLLDLRQGMFAQLVAQNVLLIDGPLSWYSDPGLAGVSLTGGLSYKEDTKELVVAKAGVYYVFFQLELRRVVAGEGSGSVSLALHLQPLRSAAGAAALALTVDLPPASSEARNSAFGFQGRLLHLSAGQRLGVHLHTEARARHAWQLTQGATVLGLFRVTPEIPAGLGGGGSGGGGASTKGPSVFPLAPSSKSTSGGTAALGCLVKDYFPEPVTVSWNSGALTSGVHTFPAVLQSSGLYSLSSVVTVPSSSLGTQTYICNVNHKPSNTKVDKKVEPKSC	0.45
P1AG7397 4-1BBL arm (protein) chain 1: REGPELSPDDPAGLLDLRQGMFAQLVAQNVLLIDGPLSWYSDPGLAGVSLTGGLSYKEDTKELVVAKAGVYYVFFQLELRRVVAGEGSGSVSLALHLQPLRSAAGAAALALTVDLPPASSEARNSAFGFQGRLLHLSAGQRLGVHLHTEARARHAWQLTQGATVLGLFRVTPEIPAGLGGGGSGGGGREGPELSPDDPAGLLDLRQGMFAQLVAQNVLLIDGPLSWYSDPGLAGVSLTGGLSYKEDTKELVVAKAGVYYVFFQLELRRVVAGEGSGSVSLALHLQPLRSAAGAAALALTVDLPPASSEARNSAFGFQGRLLHLSAGQRLGVHLHTEARARHAWQLTQGATVLGLFRVTPEIPAGLGGGGSGGGGRTVAAPSVFIFPPSDEQLKSGTASVVCLLNNFYPREAKVQWKVDNALQSGNSQESVTEQDSKDSTYSLSSTLTLSKADYEKHKVYACEVTHQGLSSPVTKSFNRGE[in this place human IgG1 Fc with changes] chain 2: REGPELSPDDPAGLLDLRQGMFAQLVAQNVLLIDGPLSWYSDPGLAGVSLTGGLSYKEDTKELVVAKAGVYYVFFQLELRRVVAGEGSGSVSLALHLQPLRSAAGAAALALTVDLPPASSEARNSAFGFQGRLLHLSAGQRLGVHLHTEARARHAWQLTQGATVLGLFRVTPEIPAGLGGGGSGGGGASTKGPSVFPLAPSSKSTSGGTAALGCLVKDYFPEPVTVSWNSGALTSGVHTFPAVLQSSGLYSLSSVVTVPSSSLGTQTYICNVNHKPSNTKVDKKVEPKSC	0.27

Continued, values first:

EC50 [nM]	Binder
1.89	P1AH1062 4-1BB arm (antibody) EVQLLESGGGLVQPGGSLRLSCAASGFTFSDYGLSWVRQAPGKGLEWVSLIDSSGSSTFYADSVKGRFTISRDNSKNTLYLQMNSLRAEDTAVYYCAKEHGLFDSWGQGTLVTVSS[in this place human IgG1 constant region]GSGSGSGSGSGSGSGSGSQSVLTQPPSASGTPGRRVTISCSGSSSNIGNNYVTWYQQLPGTAPKLLIYADSHRPSGVPDRFSGSKSGTSASLAISGLRSEDEADYYCATWDYSLSGYVFGCGTKLTVLGGGGSGGGGSGGGGSGGGGSEVQLLESGGGLVQPGGSLRLSCAASGFTFSSYDMSWVRQAPGKCLEWVSWISYSGGSIYYADSVKGRFTISRDNSKNTLYLQMNSLRAEDTAVYYCARDAQRNSMREFDYWGQGTLVTVSS
0.29	P1AG7422 4-1BBL arm (protein) chain 1: REGPELSPDDPAGLLDLRQGMFAQLVAQNVLLIDGPLSWYSDPGLAGVSLTGGLSYKEDTKELVVAKAGVYYVFFQLELRRVVAGEGSGSVSLALHLQPLRSAAGAAALALTVDLPPASSEARNSAFGFQGRLLHLSAGQRLGVHLHTEARARHAWQLTQGATVLGLFRVTPEIPAGLGGGGSGGGGREGPELSPDDPAGLLDLRQGMFAQLVAQNVLLIDGPLSWYSDPGLAGVSLTGGLSYKEDTKELVVAKAGVYYVFFQLELRRVVAGEGSGSVSLALHLQPLRSAAGAAALALTVDLPPASSEARNSAFGFQGRLLHLSAGQRLGVHLHTEARARHAWQLTQGATVLGLFRVTPEIPAGLGGGGSGGGGRTVAAPSVFIFPPSDEQLKSGTASVVCLLNNFYPREAKVQWKVDNALQSGNSQESVTEQDSKDSTYSLSSTLTLSKADYEKHKVYACEVTHQGLSSPVTKSFNRGE[in this place human IgG1 Fc with changes] chain 2: REGPELSPDDPAGLLDLRQGMFAQLVAQNVLLIDGPLSWYSDPGLAGVSLTGGLSYKEDTKELVVAKAGVYYVFFQLELRRVVAGEGSGSVSLALHLQPLRSAAGAAALALTVDLPPASSEARNSAFGFQGRLLHLSAGQRLGVHLHTEARARHAWQLTQGATVLGLFRVTPEIPAGLGGGGSGGGGASTKGPSVFPLAPSSKSTSGGTAALGCLVKDYFPEPVTVSWNSGALTSGVHTFPAVLQSSGLYSLSSVVTVPSSSLGTQTYICNVNHKPSNTKVDKKVEPKSC
